Results as given in the supplement of paper PMC6135742.
Structures can show the parent of a compound that is named as a salt. ± gives the standard deviation of the averaged measurements. Over roughly 2,600 compounds, “total cell number (DAPI+ nuclei) relative to DMSO vehicle control” has its median near -1.4; the lowest 2% begin near -23. The list shows a part of the results.

System: jimpy (Plp1 jimpy) mouse iPSC-derived oligodendrocyte progenitor cells
Assay: total cell number (DAPI+ nuclei) relative to DMSO vehicle control (SDs above negative control mean); higher = more surviving cells
Details: 10 µM; 3 days

Point of comparison: `COc1ccc2c(c1O)-c1cccc3c1[C@@H](C2)N(C)CC3` [R(-)-Apocodeine hydrochloride], total cell number -2.28. Against it:
- c1ccc(C[N+]23CN4CN(CN(C4)C2)C3)cc1 [Roslin 2] — lower, -2.78
- C=C1C[C@@H]2[C@H](CC[C@]3(C)C(=O)CC[C@@H]23)[C@@]2(C)C=CC(=O)C=C12 [Exemestane] — lower, -5.89
- COc1ccc2c(c1OC)C(=O)OC2C1c2cc3c(cc2CCN1C)OCO3 (single isomer, unassigned; (+)) [(+)-Hydrastine] — higher, -1.27
- O=C1C=CC(=O)C=C1 [p-Benzoquinone] — lower, -5.64
- c1ccc2c(c1)sc1ccccc12 [Dibenzothiophene] — higher, 0.55
- O=P1(N(CCCl)CCCl)NCCCO1 (stereo unspecified) [Cyclophosphamide monohydrate] — higher, -1.66
- CN1C(=O)CCS(=O)(=O)C1c1ccc(Cl)cc1 (stereo unspecified) [Chlormezanone] — within error, -1.28 ± 1.1
- CC(=O)OCC1=C(C(=O)[O-])N2C(=O)[C@@H](NC(=O)CCC[C@@H](N)C(=O)[O-])[C@H]2SC1.[Zn+2] [Cephalosporin C zinc salt] — higher, -1.93
- O=C(O)[C@@H]1CCN1 [L-azetidine-2-carboxylic acid] — higher, -2.05
- O=C(O)Cc1cnc[nH]1 [Imidazole-4-acetic acid hydrochloride] — higher, -2.24
- CCCCCCCCCCCCCCCC[n+]1ccccc1 [Cetylpyridinium Chloride] — lower, -15.7
- CCCN1CCO[C@@H]2c3cc(O)ccc3OC[C@H]21 — higher, -1.34
- Cc1ccc(-n2nccn2)c(C(=O)N2CCN(c3nc4cc(Cl)ccc4o3)CC[C@H]2C)c1 [Suvorexant (MK-4305)] — higher, 0.1
- C[C@@H]1O[C@@H](O[C@H]2C[C@@H](O)[C@]3(CO)[C@H]4[C@H](O)C[C@]5(C)[C@@H]([C@@H]6COC(=O)C6)CC[C@]5(O)[C@@H]4CC[C@]3(O)C2)[C@H](O)[C@H](O)[C@H]1O [Dihydroouabain] — higher, 0.444
- C/C=C(/C)C(=O)O[C@H]1C(C)=C2[C@H]([C@@H]1OC(=O)CCCCCCC)[C@@](C)(OC(C)=O)C[C@H](OC(=O)CCC)[C@@]1(O)[C@H]2OC(=O)[C@@]1(C)O [Thapsigargin] — lower, -10.1
- CCCN(CCC)C1CCc2cccc(O)c2C1 (racemic) [(±)-8-Hydroxy-DPAT hydrobromide] — higher, -1.03
- C[C@]12CC[C@@H](O)C[C@@H]1CC[C@@H]1[C@@H]2CC[C@]2(C)[C@@H](C(=O)CO)CC[C@@H]12 [3-alpha,21-Dihydroxy-5-alpha-pregnan-20-one] — higher, -1.1
- c1ccc2c(c1)OCC(C1=NCCN1)O2 (stereo unspecified) [Idazoxan hydrochloride] — higher, -1.38
- COc1ccc(CC2NCCc3cc(OC)c(OC)cc32)cc1OC (stereo unspecified) [Tetrahydropapaverine HCl] — higher, 0.54
- CC[C@@H](CO)NC(=O)[C@@H]1C=C2c3cccc4c3c(cn4C)C[C@H]2N(C)C1 [Methysergide maleate] — higher, -0.816
- CC(C)C1CNC(C(=O)O)C1CC(=O)O (stereo unspecified) [Dihydrokainic acid] — higher, -0.564
- COc1cc2c(c(OC)c1OC)-c1ccc(OC)c(=O)cc1[C@@H](NC(C)=O)CC2 [Colchicine] — lower, -2.58
- Cc1cc([C@@H]2CCCN2C)on1 [ABT-418 hydrochloride] — lower, -4.48
- C[C@]12CC[C@H](O)CC1=CC[C@@H]1[C@@H]2CC[C@]2(C)C(=O)CC[C@@H]12 [Dehydroepiandrosterone (DHEA)] — higher, 0.833
- CC(N)C(O)c1ccc(O)c(O)c1 (single isomer, unassigned; (-)) [(-)-alpha-Methylnorepinephrine] — higher, -0.161
- O=C(O)CC[N+](=O)[O-] [3-Nitropropionic acid] — higher, -2.13
- OCc1cnc[nH]1 [4-Imidazolemethanol hydrochloride] — higher, -0.846
- O=[N+]([O-])c1ncc[nH]1 [Azomycin] — higher, 2.47
- CN1C[C@H](CNC(=O)OCc2ccccc2)C[C@@H]2c3cccc4c3c(cn4C)C[C@H]21 [Metergoline] — lower, -7.7
- CCCN1CCC[C@@H]2Cc3n[nH]cc3C[C@H]21 [(-)-Quinpirole hydrochloride] — higher, -0.638
- CC(C)c1cccc(C(C)C)c1O [Propofol] — higher, -1.47
- CC(O)(CS(=O)(=O)c1ccc(F)cc1)C(=O)Nc1ccc(C#N)c(C(F)(F)F)c1 (stereo unspecified) [Bicalutamide (CDX)] — higher, -0.733
- CC(O)(CS(=O)(=O)c1ccc(F)cc1)C(=O)Nc1ccc(C#N)c(C(F)(F)F)c1 (stereo unspecified) [Bicalutamide] — higher, 1.82
- CN1CCc2cc3c(cc2C1C1OC(=O)c2c1ccc1c2OCO1)OCO3 (single isomer, unassigned; (+)) [(+)-Bicuculline] — higher, 0.293
- CCN1CCN(C(=O)Cc2ccc(Nc3ncc(F)c(Nc4ccc(C(=O)Nc5ccccc5Cl)cc4)n3)cc2)CC1 [Aurora A Inhibitor I] — higher, 1.44
- CCOC(=O)c1cncn1[C@H](C)c1ccccc1 [Etomidate] — higher, -0.556
- CCC1(c2ccc(N)cc2)CCC(=O)NC1=O (racemic) [(±)-p-Aminoglutethimide] — higher, -1.52
- Cc1ncsc1CCCl [Chlormethiazole hydrochloride] — higher, -1.01
- CCCN(CCC)C1CCc2ccc(O)cc2C1 (racemic) [(±)-7-Hydroxy-DPAT hydrobromide] — higher, -1.31
- COC[C@H]1OC(=O)c2coc3c2[C@@]1(C)C1=C(C3=O)C2CCC(=O)[C@@]2(C)C[C@H]1OC(C)=O (stereo partly specified) [Wortmannin from Penicillium funiculosum] — lower, -3.09
- O=C(CCCN1CCC2(CC1)C(=O)NCN2c1ccccc1)c1ccc(F)cc1 [Spiperone hydrochloride] — lower, -3.6
- CC(C)Oc1cccnc1N(C)C1CCN(Cc2ccccc2)CC1 — higher, 7.57
- NCC1(CC(=O)O)CCCCC1 [Gabapentin] — higher, 0.162
- O=c1cccc2n1C[C@@H]1CNC[C@H]2C1 [Cytisine] — higher, -1.22
- C[N+]1(C)[C@@H]2CC(OC(=O)[C@H](CO)c3ccccc3)C[C@H]1[C@@H]1O[C@@H]12 (single isomer, unassigned; (-)) [(-)-Scopolamine methyl nitrate] — higher, -1.19
